# The supplement of paper PMC8728848
# Some of the results follow.
# B1: LEA (Lycopersicon esculentum) (protein)
# chain: NEVFDVPMNETIGVESINASVGGYPRCGAQGDGGNCPSGMCCSVWGWCGKTYGYCAPQNCQKQCPAPYPEGRCGWQADGKSCPNGKCCSYGGWCGTTSDYCARQNCQKQCILPSPPPPPPPPPGFPRPECGLQKNGERCTKPGECCSIWGLCGATYKYCDPQHCQKQCSAPFPPGRCGWQADGRPCPTGQCCSFSGWCGTTSAHCTYPQCVSQCNDPRFPSSLNNRIQSFML
# Tests used:
# Test in all cases: glycan array binding signal (z-score within array); higher = stronger binding
# Conditions in all cases: glycan notation: IUPAC condensed, linker removed
# [1] = biological target: Gal3S(b1-4)Glc
# Method in brief: (§1)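 From the Consortium for Functional Glycomics database, 3228 arrays were curated, keeping only those whose protein sequence was available. Binding is given as a within-array Z-score averaged across arrays sharing a protein sequence and across linkers. Negative Z-scores can be read as non-binding.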
# [2] = biological target: Gal3S(b1-4)Glc6S
# Method in brief: as §1
# [3] = biological target: Gal3S(b1-4)GlcNAc
# Method in brief: as §1
# [4] = biological target: Gal3S(b1-4)GlcNAc6S
# Method in brief: as §1
# [5] = biological target: Gal3S6S(b1-4)GlcNAc
# Method in brief: as §1
# [6] = biological target: Gal3S6S(b1-4)GlcNAc6S
# Method in brief: as §1
# [7] = biological target: Gal4S(b1-4)GlcNAc
# Method in brief: as §1
# [8] = biological target: Gal4S6S(b1-4)GlcNAc
# Method in brief: as §1
# [9] = biological target: Gal6S(b1-4)Glc
# Method in brief: as §1
# [10] = biological target: Gal6S(b1-4)Glc6S
# Method in brief: as §1
# [11] = biological target: Gal6S(b1-4)GlcNAc
# Method in brief: as §1
# [12] = biological target: GalNAc(a1-3)Gal
# Method in brief: as §1
# [13] = biological target: GalNAc(a1-3)GalNAc
# Method in brief: as §1
# [14] = biological target: GalNAc(b1-3)Gal(a1-4)Gal(b1-4)GlcNAc
# Method in brief: as §1
# [15] = biological target: GalNAc(b1-4)GlcNAc
# Method in brief: as §1
# [16] = biological target: Glc(a1-4)Glc
# Method in brief: as §1
# [17] = biological target: Glc(a1-6)Glc(a1-6)Glc
# Method in brief: as §1
# [18] = biological target: Glc(b1-4)Glc
# Method in brief: as §1
# [19] = biological target: Glc(b1-6)Glc
# Method in brief: as §1
# [20] = biological target: GlcA(b1-3)Gal
# Method in brief: as §1
# [21] = biological target: GlcA(b1-6)Gal
# Method in brief: as §1
# [22] = biological target: GlcNAc(a1-3)Gal(b1-4)GlcNAc
# Method in brief: as §1
# [23] = biological target: GlcNAc(a1-6)Gal(b1-4)GlcNAc
# Method in brief: as §1
# [24] = biological target: GlcNAc(b1-2)Gal(b1-3)GlcNAc
# Method in brief: as §1
# [25] = biological target: GlcNAc(b1-2)Man(a1-3)[GlcNAc(b1-2)Man(a1-6)]Man(b1-4)GlcNAc(b1-4)GlcNAc
# Method in brief: as §1
# [26] = biological target: GlcNAc(b1-3)Gal
# Method in brief: as §1
# [27] = biological target: GlcNAc(b1-3)Gal(b1-3)GalNAc
# Method in brief: as §1
# [28] = biological target: GlcNAc(b1-3)Gal(b1-4)Glc
# Method in brief: as §1
# [29] = biological target: GlcNAc(b1-3)Gal(b1-4)GlcNAc
# Method in brief: as §1
# [30] = biological target: GlcNAc(b1-3)Gal(b1-4)GlcNAc(b1-3)Gal(b1-4)GlcNAc
# Method in brief: as §1
# [31] = biological target: GlcNAc(b1-3)GalNAc
# Method in brief: as §1
# [32] = biological target: GlcNAc(b1-3)[GlcNAc(b1-4)][GlcNAc(b1-6)]GlcNAc
# Method in brief: as §1
# [33] = biological target: GlcNAc(b1-3)[GlcNAc(b1-6)]Gal(b1-4)GlcNAc
# Method in brief: as §1
# [34] = biological target: GlcNAc(b1-3)[GlcNAc(b1-6)]GlcNAc
# Method in brief: as §1
# [35] = biological target: GlcNAc(b1-4)Gal(b1-4)GlcNAc
# Method in brief: as §1
# [36] = biological target: GlcNAc(b1-4)GlcNAc(b1-4)GlcNAc
# Method in brief: as §1
# [37] = biological target: GlcNAc(b1-4)GlcNAc(b1-4)GlcNAc(b1-4)GlcNAc(b1-4)GlcNAc
# Method in brief: as §1
binder,measurement,setting,value
B1,glycan array binding signal (z-score),[1],-0.511
same,glycan array binding signal (z-score),[2],-0.461
same,glycan array binding signal (z-score),[3],1.76
same,glycan array binding signal (z-score),[4],1.54
same,glycan array binding signal (z-score),[5],-0.485
same,glycan array binding signal (z-score),[6],-0.22
same,glycan array binding signal (z-score),[7],2.18
same,glycan array binding signal (z-score),[8],-0.461
same,glycan array binding signal (z-score),[9],-0.518
same,glycan array binding signal (z-score),[10],-0.441
same,glycan array binding signal (z-score),[11],-0.444
same,glycan array binding signal (z-score),[12],-0.541
same,glycan array binding signal (z-score),[13],-0.553
same,glycan array binding signal (z-score),[14],2.55
same,glycan array binding signal (z-score),[15],1.91
same,glycan array binding signal (z-score),[16],-0.525
same,glycan array binding signal (z-score),[17],-0.531
same,glycan array binding signal (z-score),[18],-0.54
same,glycan array binding signal (z-score),[19],-0.059
same,glycan array binding signal (z-score),[20],-0.547
same,glycan array binding signal (z-score),[21],-0.555
same,glycan array binding signal (z-score),[22],2.03
same,glycan array binding signal (z-score),[23],-0.549
same,glycan array binding signal (z-score),[24],-0.555
same,glycan array binding signal (z-score),[25],-0.512
same,glycan array binding signal (z-score),[26],-0.567
same,glycan array binding signal (z-score),[27],-0.526
same,glycan array binding signal (z-score),[28],-0.555
same,glycan array binding signal (z-score),[29],0.822
same,glycan array binding signal (z-score),[30],2.13
same,glycan array binding signal (z-score),[31],-0.562
same,glycan array binding signal (z-score),[32],-0.551
same,glycan array binding signal (z-score),[33],-0.526
same,glycan array binding signal (z-score),[34],-0.566
same,glycan array binding signal (z-score),[35],1.96
same,glycan array binding signal (z-score),[36],1.38
same,glycan array binding signal (z-score),[37],2
